Test results as given in PMC10657365, “Loss of SMURF2 expression enhances RACK1 stability and promotes ovarian cancer progression” (Cell Death and Differentiation, 2023).

Target: Myc-tagged full-length (FL) RACK1 (UniProt P63244)
Assay: pull-down; GST, GST-SMURF2 or GST-SMURF2 C716A on glutathione-Sepharose 4B beads mixed with Myc-RACK1 for 2 h at 4 °C, washed with GST binding buffer, immunoblot
Conditions: both partners purified

binding result: binds
B1: GST-SMURF2 C716A (enzyme)
chain: not shown
notes: SMURF2 with C716A, as a GST fusion; source: E. coli BL21 (DE3), purified on glutathione-Sepharose 4B
